Four molecules from doi:10.1101/325712 (bioRxiv, 2018) can be followed below.

The data set “native MS” concerns the molecule itself. Kind of data set: native MS.
The target in data set [1] is T1, human FLNC domains 18-21 (residues 1943-2408), EEF-tagged (human, UniProt Q14315 1943-2408).
T1 sequence: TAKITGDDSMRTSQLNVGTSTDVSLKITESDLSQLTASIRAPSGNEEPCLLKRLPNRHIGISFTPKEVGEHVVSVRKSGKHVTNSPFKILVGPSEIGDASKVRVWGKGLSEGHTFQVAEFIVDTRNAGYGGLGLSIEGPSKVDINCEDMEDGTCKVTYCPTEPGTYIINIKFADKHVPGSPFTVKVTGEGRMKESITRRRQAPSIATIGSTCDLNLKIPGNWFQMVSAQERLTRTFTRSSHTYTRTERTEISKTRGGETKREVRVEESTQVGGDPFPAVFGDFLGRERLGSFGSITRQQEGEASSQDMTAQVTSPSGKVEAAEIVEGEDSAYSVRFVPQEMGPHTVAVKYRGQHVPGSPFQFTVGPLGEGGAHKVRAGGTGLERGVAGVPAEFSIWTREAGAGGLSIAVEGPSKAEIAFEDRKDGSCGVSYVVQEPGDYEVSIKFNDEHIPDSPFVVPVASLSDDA
Description: co-sedimentation.

B1: human HspB1 […], WT (domain or fragment)
chain: not shown
With B1, the “stoichiometry N” value in the data set “native MS” was found to be 2.

B2: human HspB1 […], single phosphomimic at Ser82 (domain or fragment)
chain: not shown
For the molecule B2, the binding result in “native MS” was “binds”.

B3: full-length human HspB1 triple phosphomimic (S15D, S78D, S82D) (natural protein)
chain: not shown
Regarding B3, the binding result in data set [1] is listed as “binds”.

B4: human HspB1 […], double phosphomimic (S78E, S82D) (domain or fragment)
chain: not shown
For the molecule B4, in the data set “native MS”, the binding result is listed as “binds”.

The term stoichiometry N denotes the number of molecules, sites or subunits per partner or assembly.
